Results on one molecule are retold here after publication PMC3608554.

No constants are given. Whether binding was seen depends on the method and setting. In cells and extracts the contact can be indirect. Some entries that bind do so weakly or less than the wild type.

In assay [1] the target is T1, BANK1, endogenous in human B-cell lines (human (endogenous in Daudi)) (UniProt Q8NDB2).
T1 sequence: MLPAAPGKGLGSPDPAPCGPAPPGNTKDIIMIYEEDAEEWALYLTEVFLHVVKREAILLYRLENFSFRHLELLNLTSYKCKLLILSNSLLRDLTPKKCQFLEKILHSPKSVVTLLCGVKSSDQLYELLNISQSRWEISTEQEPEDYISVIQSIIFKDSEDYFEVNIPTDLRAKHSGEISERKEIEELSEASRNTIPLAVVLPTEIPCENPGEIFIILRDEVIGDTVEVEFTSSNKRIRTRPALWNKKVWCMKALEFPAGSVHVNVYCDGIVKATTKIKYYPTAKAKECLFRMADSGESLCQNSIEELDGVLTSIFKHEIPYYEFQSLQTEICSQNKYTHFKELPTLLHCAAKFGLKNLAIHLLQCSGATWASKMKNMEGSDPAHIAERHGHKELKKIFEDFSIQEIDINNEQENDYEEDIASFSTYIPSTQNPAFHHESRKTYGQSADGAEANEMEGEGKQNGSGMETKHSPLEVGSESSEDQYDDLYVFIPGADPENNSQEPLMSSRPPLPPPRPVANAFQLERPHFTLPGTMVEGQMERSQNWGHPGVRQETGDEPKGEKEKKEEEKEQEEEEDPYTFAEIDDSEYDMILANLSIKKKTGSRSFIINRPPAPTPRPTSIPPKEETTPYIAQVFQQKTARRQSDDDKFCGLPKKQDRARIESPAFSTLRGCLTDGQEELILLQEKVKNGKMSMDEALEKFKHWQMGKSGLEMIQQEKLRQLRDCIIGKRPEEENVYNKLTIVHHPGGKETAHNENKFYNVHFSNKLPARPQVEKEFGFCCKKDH
Nature of the assay: co-IP; endogenous proteins, resting (non-stimulated) Daudi cells; IP anti-PLCg2 and blot anti-BANK1, or reverse IP anti-BANK1 and blot anti-PLCg2.

Assay [2] deals with T1, BANK1, endogenous in human B-cell lines (human (endogenous in Daudi)). Nature of the assay: co-IP; endogenous proteins, Daudi cells stimulated with 10 ug/mL goat F(ab')2 anti-human IgM; 1% NP-40 lysate; IP anti-PLCg2 and blot anti-BANK1, or reverse IP anti-BANK1 and blot anti-PLCg2; also in shControl and BLK-silenced (shBLK) Daudi cells, where the association was reduced.

B1: PLCg2, endogenous in human B-cell lines (enzyme, UniProt P16885 1-1265)
chain: MSTTVNVDSLAEYEKSQIKRALELGTVMTVFSFRKSTPERRTVQVIMETRQVAWSKTADKIEGFLDIMEIKEIRPGKNSKDFERAKAVRQKEDCCFTILYGTQFVLSTLSLAADSKEDAVNWLSGLKILHQEAMNASTPTIIESWLRKQIYSVDQTRRNSISLRELKTILPLINFKVSSAKFLKDKFVEIGAHKDELSFEQFHLFYKKLMFEQQKSILDEFKKDSSVFILGNTDRPDASAVYLHDFQRFLIHEQQEHWAQDLNKVRERMTKFIDDTMRETAEPFLFVDEFLTYLFSRENSIWDEKYDAVDMQDMNNPLSHYWISSSHNTYLTGDQLRSESSPEAYIRCLRMGCRCIELDCWDGPDGKPVIYHGWTRTTKIKFDDVVQAIKDHAFVTSSFPVILSIEEHCSVEQQRHMAKAFKEVFGDLLLTKPTEASADQLPSPSQLREKIIIKHKKLGPRGDVDVNMEDKKDEHKQQGELYMWDSIDQKWTRHYCAIADAKLSFSDDIEQTMEEEVPQDIPPTELHFGEKWFHKKVEKRTSAEKLLQEYCMETGGKDGTFLVRESETFPNDYTLSFWRSGRVQHCRIRSTMEGGTLKYYLTDNLTFSSIYALIQHYRETHLRCAEFELRLTDPVPNPNPHESKPWYYDSLSRGEAEDMLMRIPRDGAFLIRKREGSDSYAITFRARGKVKHCRINRDGRHFVLGTSAYFESLVELVSYYEKHSLYRKMRLRYPVTPELLERYNMERDINSLYDVSRMYVDPSEINPSMPQRTVKALYDYKAKRSDELSFCRGALIHNVSKEPGGWWKGDYGTRIQQYFPSNYVEDISTADFEELEKQIIEDNPLGSLCRGILDLNTYNVVKAPQGKNQKSFVFILEPKQQGDPPVEFATDRVEELFEWFQSIREITWKIDTKENNMKYWEKNQSIAIELSDLVVYCKPTSKTKDNLENPDFREIRSFVETKADSIIRQKPVDLLKYNQKGLTRVYPKGQRVDSSNYDPFRLWLCGSQMVALNFQTADKYMQMNHALFSLNGRTGYVLQPESMRTEKYDPMPPESQRKILMTLTVKVLGARHLPKLGRSIACPFVEVEICGAEYDNNKFKTTVVNDNGLSPIWAPTQEKVTFEIYDPNLAFLRFVVYEEDMFSDPNFLAHATYPIKAVKSGFRSVPLKNGYSEDIELASLLVFCEMRPVLESEEELYSSCRQLRRRQEELNNQLFLYDTHQNLRNANRDALVKEFSVNENQLQLYQEKCNKRLREKRVSNSKFYS
For B1, the binding entry is listed as “no binding (condition: cells not stimulated with anti-IgM)” in assay [1] and “binds” in assay [2].
